biological target: T1, Recombinant soluble human HER2 extracellular domain (Homo sapiens, UniProt P04626); assay: SPR; BioRad ProteOn XPR36; HER2 or VEGF amine-coupled to a GLC chip (about 150 RU); Fab as analyte, 3-fold dilutions from 30, 60 or 120 nM; 25C; PBS, 0.05% Tween 20, 3.4 mM EDTA; 1:1 binding model, KD from koff/kon; conditions: both partners purified
T1 construct: human HER2 (ErbB2), soluble extracellular domain; also called HER2 ectodomain; Receptor-tyrosine kinase ErbB2 soluble ectodomain; source: bought: eBioscience

Binder | Kd [pM] | koff [s⁻¹] | kon [M⁻¹ s⁻¹]
Herceptin Fab HD102F HD31K LD28K (Fab, V domains shown, as the heavy chain of m17 with the stated changes; numbers count on: the 1n8z PDB entry; as the light chain of m17 with the stated change; also called best triple mutant (Herceptin-HER2); source: CHO-3E7, co-transfected, His-tag purified) VH: not shown VL: not shown | 1.9 ± 0.2 | 1.1e-05 | 6.1e+06
Herceptin Fab HD102F HD31M LD28K (Fab, V domains shown, as the heavy chain of m17 with the stated changes; numbers count on: the 1n8z PDB entry; as the light chain of m17 with the stated change; source: CHO-3E7, co-transfected, His-tag purified) VH: not shown VL: not shown | 2.9 ± 0.7 | 1.4e-05 | 5.1e+06
Herceptin Fab HD102F HD31K LD28R (Fab, V domains shown, as the heavy chain of m17 with the stated changes; numbers count on: the 1n8z PDB entry; as the light chain of m17 with the stated change; source: CHO-3E7, co-transfected, His-tag purified) VH: not shown VL: not shown | 2.5 ± 1 | 1.7e-05 | 6.8e+06
Herceptin Fab HD102F HD31M LD28R (Fab, V domains shown, as the heavy chain of m17 with the stated changes; numbers count on: the 1n8z PDB entry; as the light chain of m17 with the stated change; source: CHO-3E7, co-transfected, His-tag purified) VH: not shown VL: not shown | 4 ± 1.4 | 1.9e-05 | 5e+06
